# According to PubChem BioAssay AID2546 (National Center for Advancing Translational Sciences (NCATS), 2010):
# The whole screen tested about 310,000 compounds, of which about 11,000 (3.5%) were called active. Inconclusive means that the source gave no clear call. Such entries were picked first, then a sample of the others. Calls come from the whole dose curve; as a rule, active = well fitted inhibition curve with a large enough effect; inconclusive = small, poorly fitted or top-dose-only effect, or effect the other way; inactive = flat fitted curve, though single readings scatter. No potency is given beside an inconclusive call; the fits are too rough.
# Experiment: VP16 counterscreen qHTS for inhibitors of ROR gamma transcriptional activity;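 note: Gal4-VP16 expression switched on by copper sulfate through the metallothionein promoter; nearly all actives have a fitted effect of over 50% in size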
# Details: Drosophila S2 Gal4-VP16 UAS-luciferase, luminescence, 20 h; activity, negative = inhibition: at 53.6 µM (top of the series)
# % is set by controls: 0 for no effect and ±100 for the full control effect; potency is the fitted concentration of half-maximal effect; tags give direction and shape of the fitted curve.
SMILES,Potency,"activity, negative = inhibition"
CCCn1nnc(NC(=O)c2ccc(Cl)cc2Cl)n1,"inconclusive [inhibitor, single point]",–
CC(C)CCNC(=O)c1ccc(OC2CCN(S(=O)(=O)N(C)C)CC2)cc1,"inconclusive [activator, partial curve]",–
C=CCN1/C(=C(\C#N)C2=NS(=O)(=O)c3ccccc32)N(C)c2ccccc21,"inconclusive [inhibitor, single point]",–
O=S(=O)(c1ccc(Br)s1)N1CCN(c2ccc(F)cc2)CC1,–,inactive: 4.28%
O=C(CNC(=O)c1ccc(Cl)cc1)c1ccc(Br)cc1,–,inactive: 19.8%
COc1cc(NC(=S)Nc2cccc(C)n2)cc(OC)c1OC,active: 8.91 µM,–
CC(C)(C)n1nnnc1C(c1cccs1)N(Cc1cccnc1)CC1CCCO1 (configuration not stated),"inconclusive [inhibitor, single point]",–
O=C(OCn1ncc(Cl)c(Cl)c1=O)c1ccc(F)cc1,active: 6.31 µM,–
CCOC(=O)c1sc(=S)n(-c2ccc3c(c2)OCO3)c1N,"inconclusive [inhibitor, single point]",–
CCOC(=O)c1ccc(Cl)c(NC(=O)c2ccc(-c3ccccc3)cc2)c1,"inconclusive [inhibitor, single point]",–
COc1ccc(/C=C/C(=O)c2cc(F)ccc2OC(=O)c2ccccc2C)cc1OC,"inconclusive [inhibitor, single point]",–
COc1ccccc1-c1nc(=S)c(C(C)=O)c(C)[nH]1,"inconclusive [inhibitor, single point]",–
CC(=O)N1c2ccc(S(=O)(=O)N3CCC(C(=O)NCCc4ccc(Cl)cc4)CC3)cc2CC1C (configuration not stated),"inconclusive [inhibitor, single point]",–
COCCCNC(=O)c1ccc(Cn2c(=O)c3ccccc3n(Cc3ccccc3C)c2=O)cc1,–,inactive: 21.9%
O=C1/C(=C/c2ccc([N+](=O)[O-])cc2)C=C(c2ccccc2)N1c1ccc(O)cc1,–,inactive: -2.44%
Cc1ccccc1-n1c(N)c(C(=O)Nc2ccc(F)cc2)sc1=S,–,inactive: -5.61%
Cc1ccccc1C(=O)NC(=S)Nc1ccc(Oc2ccc(Cl)cc2)cc1,active: 11.2 µM,–
COc1ccc(C(=O)Nc2nnc(-c3cccs3)s2)cc1,–,inactive: 1.93%
COc1cc(C(=O)NCCCNc2ccc([N+](=O)[O-])cc2)cc(OC)c1OC,–,inactive: 0.408%
Cc1ccc(/C=N/NC(=S)NC(C)C)o1,active: 2.82 µM,–
CCOC(=O)C1(Cc2ccccc2C)CCCN(C(=O)CCc2cccnc2)C1 (configuration not stated),"inconclusive [activator, single point]",–
O=c1nc(-c2ccccc2)n(-c2ccccc2)[nH]1,–,inactive: 5.83%
CC(C)C(=O)NC(=S)Nc1ccccc1C(F)(F)F,"inconclusive [inhibitor, single point]",–
O=C(/C=C/c1ccccc1O)c1ccco1,active: 11.2 µM,–
Cc1ccc(/C=N/NC(=O)c2c(C)nc3ccc(Br)cn23)cc1,"inconclusive [inhibitor, full curve]",–
O=C(CCSc1ccc(Cl)cc1)c1ccco1,"inconclusive [inhibitor, single point]",–

SMILES,Potency,"activity, negative = inhibition"
CCc1ccc2nc(NC(=O)c3cc(C)on3)sc2c1,"inconclusive [inhibitor, single point]",–
CN1C(=O)c2c(sc3c2CCCC3)NC1c1ccccc1O (configuration not stated),"inconclusive [activator, single point]",–
Cc1ccsc1-c1nc(CN2C[C@@H](C)O[C@@H](C)C2)c(C)o1,–,inactive: -5.44%
Cc1ccccc1NC(=S)NCc1ccc(F)cc1,active: 6.31 µM,–
COc1ccccc1Nc1nn2c(=O)c3ccc(C(=O)NCc4cccnc4)cc3nc2s1,–,inactive: -0.071%
COc1cccc(/C=C2\C(=O)N(c3cccc(C)c3)C(=O)c3ccccc32)c1,"inconclusive [inhibitor, single point]",–
NC(=S)N=Nc1c(O)n(CCCl)c2ccc(Br)cc12,active: 3.55 µM,–
CNc1oc(/C=C/c2ccccc2)nc1C#N,"inconclusive [activator, partial curve]",–
COCC(=O)Nc1cc(C)cn(Cc2ccc(F)cc2)c1=O,–,inactive: 4.31%
Cc1c(C)c(C)c2[nH]c(-c3ccc4c(c3)OCO4)nc2c1C,"inconclusive [inhibitor, single point]",–
Cc1ccc(NC(=O)c2noc3c2CCC3)cc1C,"inconclusive [activator, partial curve, poor fit]",–
CC(C)C(c1nnnn1C(C)(C)C)N1CCC(Cc2ccccc2)CC1 (configuration not stated),active: 22.4 µM,–
COc1ccc(N(CC(=O)Nc2cc([N+](=O)[O-])ccc2C)S(C)(=O)=O)cc1OC,–,inactive: -5.25%
CCCC(=O)NC(c1ccc(C)cc1)c1ccc2cccnc2c1O (configuration not stated),active: 2.24 µM,–
COc1ccc(-c2nc(C(N)=O)c3[nH]c(=O)n(-c4cccc(Cl)c4)c3n2)cc1OC,"inconclusive [inhibitor, single point]",–
Cc1cc(C)cc(NC(=O)CCc2c(C)nn(-c3ccc(N4CCCCC4)nn3)c2C)c1,"inconclusive [inhibitor, single point]",–
CCNc1nnc(CSc2nc3ccccc3s2)s1,"inconclusive [inhibitor, single point]",–
Cc1cccc(-n2c(-c3ccco3)n[nH]c2=S)c1,"inconclusive [inhibitor, single point]",–
COc1ccc(-n2c(-c3ccc(C)cc3)n[nH]c2=S)cc1,active: 3.16 µM,–
CCCc1c(C)nc2ccccc2c1SCCC#N,–,inactive: -3.84%
Cc1ccc(OCC(=O)Nc2ccc(-c3nc4ncccc4o3)cc2)c(C)c1,"inconclusive [inhibitor, single point]",–
O=C(C1CCN(C2CC(=O)N(c3ccc(F)cc3)C2=O)CC1)N1CCOCC1 (configuration not stated),"inconclusive [inhibitor, single point]",–
COc1ccc(C2C(C(=O)O)c3ccccc3C(=O)N2C)cc1Br (configuration not stated),–,inactive: 3.14%
COc1ccc(CCN(C)C2CCCN(S(=O)(=O)c3ccc(C)cc3)C2)cc1OC (configuration not stated),–,inactive: -1.49%
CC(C)Oc1ccc(-c2cc(C(=O)NCCN3CCOCC3)c3ccccc3n2)cc1,"inconclusive [inhibitor, single point]",–
Cc1nc(Nc2ccc(Cl)c(Cl)c2)sc1C(=O)Nc1ccccc1,"inconclusive [inhibitor, single point]",–

SMILES,Potency,"activity, negative = inhibition"
Cc1cc(C)cc(-n2c(=O)c3ccccc3n(CC(=O)NCC3CCCO3)c2=O)c1 (configuration not stated),–,inactive: -13.1%
O=C(NC(=S)Nc1ccccc1N1CCCC1)c1cccs1,active: 15.8 µM,–
O=C(Cc1nc2ccccc2[nH]1)c1cccc([N+](=O)[O-])c1,–,inactive: -3.29%
Cc1ccc(C(=O)N[C@@H](C)CN2C3=NC[C@H](C(C)C)N3C[C@H]2Cc2ccc(O)cc2)cc1Br,"inconclusive [inhibitor, single point]",–
CCN(CC)C(=O)C(=O)c1cn(CC(=O)N2CCc3ccccc3C2)c2ccccc12,–,inactive: 0.92%
COC(=O)c1c(NC(NC(=O)c2ccccc2)(C(F)(F)F)C(F)(F)F)sc2c1CCN(C)C2,–,inactive: 3.1%
Cc1cccc(OCCn2nnc3ccccc32)c1C,"inconclusive [inhibitor, single point]",–
Cc1cc(NC(=O)c2oc3ccccc3c2C)ccc1-n1cnnn1,"inconclusive [inhibitor, single point]",–
CCC1=NN(C(=O)Cc2ccccc2)C(O)(c2ccncc2)C1 (configuration not stated),"inconclusive [inhibitor, single point]",–
CN(C)CCNc1ncnc2c1cnn2-c1ccc(Cl)cc1,"inconclusive [inhibitor, single point]",–
Clc1ccc(-n2nnnc2CN2CCCCC2)cc1Cl,"inconclusive [activator, partial curve, poor fit]",–
CC(C)C[C@H](NC(=O)c1nc[nH]c1C(=O)N1CCc2ccccc2C1)C(=O)OC(C)(C)C,"inconclusive [inhibitor, single point]",–
CCCc1nc2ccccc2c(=O)n1/N=C/c1ccc(O)cc1O,active: 20 µM,–
O=C(/C=C/c1ccccc1)C1=C(O)C(=O)N(CCO)C1c1ccc2c(c1)OCO2 (configuration not stated),–,inactive: -12.8%
Cc1c(C(=O)NCc2cccs2)oc2ccccc12,"inconclusive [activator, single point]",–
COc1ccc(/C=N/OCC(=O)NC(c2ccccc2)c2ccccc2)cc1OC,active: 1.58 µM,–
CCn1c(=O)c(-c2nc3ccccc3[nH]2)c(O)c2ccccc21,active: 0.631 µM,–
CCNc1nc(NCC)n2c(SC(C)C(=O)c3ccc(C)cc3)nnc2n1 (configuration not stated),"inconclusive [inhibitor, single point]",–
COC(=O)/C=C\C(=O)Nc1cccc([N+](=O)[O-])c1,active: 1.26 µM,–
COc1ccccc1N=NC1C(=O)N(C(N)=S)N=C1C (configuration not stated),active: 3.16 µM,–
CCOc1ccc2c(c1)C(C)=CC(C)(C)N2,"inconclusive [activator, full curve]",–
CS(=O)(=O)c1ccc(Sc2nc3ccccc3s2)c([N+](=O)[O-])c1,active: 10 µM,–
CC(=O)c1cccc(OCc2cc(C(=O)NCc3nc(C)c(C)s3)no2)c1,"inconclusive [activator, partial curve]",–
COc1cc2c(cc1OC)C(c1ccccc1OC(C)C)CC(=O)N2 (configuration not stated),"inconclusive [activator, single point]",–
COC1=C/C(=C/c2c(N)n3cc(C)sc3nc2=O)C=CC1=O,"inconclusive [inhibitor, single point]",–
